PubChem BioAssay AID360 (National Center for Advancing Translational Sciences (NCATS), 2006)
Hit rate of the full screen: of about 48,000 compounds, about 550 (1.1%) were called active. Another 4% or so got no clear call; they are omitted. Rule as the data show it: active = potency below about 15 µM; inconclusive = mostly about 16 µM to 33 µM; inactive = weaker than that. This is one part of the list.

biological target: Lysosomal acid glucosylceramidase (Homo sapiens) (UniProt P04062); assay: Glucocerebrosidase; details: purified enzyme, resorufin glucoside fluorescence (screen aimed at inhibitors), 20 min;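 also: the screen sought inhibitors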
Method in brief: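 Wild-type enzyme at 0.2 nM final in 50mM citric acid/KH2PO4, 10mM sodium taurocholate, 0.01% tween-20, pH 5.9, with resorufin beta-D-glucopyranoside at 30 uM final. Compounds titrated, 20 min at RT, red fluorescence read; AC50 from titration.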
Potency is read from the fitted curve at half-maximal effect.

UniProt P04062, sequence (P04062 whole entry, looked up): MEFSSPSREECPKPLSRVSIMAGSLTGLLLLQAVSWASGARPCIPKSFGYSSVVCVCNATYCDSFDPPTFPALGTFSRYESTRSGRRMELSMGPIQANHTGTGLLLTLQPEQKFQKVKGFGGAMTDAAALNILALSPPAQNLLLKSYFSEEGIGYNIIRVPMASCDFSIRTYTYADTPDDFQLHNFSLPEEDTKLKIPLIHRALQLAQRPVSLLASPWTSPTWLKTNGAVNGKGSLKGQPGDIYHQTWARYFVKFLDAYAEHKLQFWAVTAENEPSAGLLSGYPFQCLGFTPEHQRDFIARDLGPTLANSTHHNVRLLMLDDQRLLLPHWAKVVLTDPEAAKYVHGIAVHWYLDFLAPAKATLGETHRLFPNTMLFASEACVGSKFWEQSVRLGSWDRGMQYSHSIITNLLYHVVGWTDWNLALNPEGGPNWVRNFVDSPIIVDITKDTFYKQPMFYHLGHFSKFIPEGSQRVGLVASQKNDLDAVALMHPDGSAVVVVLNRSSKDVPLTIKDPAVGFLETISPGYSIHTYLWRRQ

Which Potency does the source give for CC(=O)CSc1ncnc2c1oc1ccccc12 here?
The Potency was inactive: > 76.9 µM.

With O=C(Nc1nnc(CCc2ccccc2)s1)C1CCCO1 (stereo not given) as the molecule, how does the Potency read?
The Potency was inactive: > 76.9 µM.

O=c1c2ccccc2sn1-c1ccc(S(=O)(=O)N2CCCCC2)cc1 was tested. Which Potency did it give?
The Potency was inactive: > 76.9 µM.

How did the Potency turn out when Cc1ccccc1CS(=O)(=O)Cc1ccc(C(=O)NCc2ccco2)o1 was run?
Its Potency is inactive: > 76.9 µM.

With CC(NC(=O)c1ccc2c(c1)OCO2)C(c1cccs1)N1CCOCC1 (stereo not given) as the molecule, how does the Potency read?
The Potency was inactive: > 76.9 µM.

For O=C(O)COc1ccccc1Cc1ccccc1, which Potency is on record?
The Potency was inactive: > 76.9 µM.

Which Potency does the source give for Cc1cc(Br)c2c(c1)=C(c1sc(N3CCCCCC3)nc1O)C(=O)N=2 here?
The Potency was inactive: > 76.9 µM.

Which Potency does the source give for CC1CCN(CCn2c(=S)[nH]c3ncccc3c2=O)CC1 here?
Its Potency is inactive: > 76.9 µM.

For CCOCCCNC(=O)C1CCC(CNS(=O)(=O)c2cccc3nsnc23)CC1 (stereo not given), which Potency is on record?
The Potency was inactive: > 76.9 µM.

For Cc1nc2ccccc2c2c1C(=O)N(CCC1=CCCCC1)C2=O, which Potency is on record?
The Potency was active: 14.3 µM.

For Cc1ccc(NCc2nnc(SCC(=O)c3ccccc3)n2Cc2ccco2)c(C)c1, which Potency is on record?
The Potency was inactive: > 76.9 µM.

Which Potency does the source give for O=c1[nH]c2c(s1)C(c1ccco1)C1C3CCC(C3)C1S2 (stereo not given) here?
Its Potency is inactive: > 76.9 µM.

CCOCCCNC(=O)c1ccc(CS(=O)(=O)Cc2cccc(C)c2)o1 was tested. Which Potency did it give?
Its Potency is inactive: > 76.9 µM.

For O=C(Nc1cccnc1)c1cc(-c2ccc3c(c2)OCO3)on1, which Potency is on record?
The Potency was inactive: > 76.9 µM.

For O=C(NC1CC1)C1CCCN1S(=O)(=O)c1ccc2ccccc2c1 (stereo not given), which Potency is on record?
The Potency was inactive: > 76.9 µM.

Which Potency does the source give for Cc1ccc(S(=O)(=O)CCc2nnc(NC(=O)c3ccccn3)s2)cc1 here?
The Potency was inactive: > 76.9 µM.

With Clc1ccc(Nc2nc(-c3cccs3)cs2)nc1 as the molecule, how does the Potency read?
The Potency was inactive: > 76.9 µM.

For COc1ccc(-c2cc(=O)n(-c3nc4ccccc4[nH]3)[nH]2)cc1, which Potency is on record?
The Potency was inactive: > 76.9 µM.

How did the Potency turn out when CCOC(=O)N1CCN(S(=O)(=O)c2ccc(OCC)c3ccccc23)CC1 was run?
Its Potency is inactive: > 76.9 µM.

With CCOC(=O)C1=C(C)Nc2ccccc2N=C1NC(=O)CCCN1C(=O)c2ccccc2C1=O as the molecule, how does the Potency read?
Its Potency is inactive: > 76.9 µM.

C/C(Cl)=C\Cn1c(Nc2cccc(C)c2)nc2c1c(=O)n(C)c(=O)n2C was tested. Which Potency did it give?
Its Potency is inactive: > 76.9 µM.

For O=C1CC2(CON=C2c2ccc(F)cc2)C(=O)N1c1ccc(F)cc1 (stereo not given), which Potency is on record?
Its Potency is inactive: > 76.9 µM.

Which Potency does the source give for COc1cccc2[nH]c3c(N4CCCCC4)ncnc3c12 here?
Its Potency is inactive: > 76.9 µM.

CCC1(CC)Cc2ccccc2C(N)=C1C#N was tested. Which Potency did it give?
Its Potency is inactive: > 76.9 µM.

O=C1Nc2cccnc2Sc2ccccc21 was tested. Which Potency did it give?
The Potency was inactive: > 76.9 µM.

How did the Potency turn out when Nc1nc(-c2cccnc2)nn1C(=O)CCc1ccccc1 was run?
The Potency was inactive: > 76.9 µM.

Which Potency does the source give for CSc1nnnn1-c1cccc(O)c1 here?
Its Potency is inactive: > 76.9 µM.

Which Potency does the source give for CCOC(=O)Nc1nnc(-c2ccccc2OC)s1 here?
The Potency was inactive: > 76.9 µM.

For [O-][N+]12CCN(CC1)c1ccccc12, which Potency is on record?
The Potency was inactive: > 76.9 µM.

With C=CCn1c(=O)c2ccccc2n2c(SCC(=O)c3ccccc3)nnc12 as the molecule, how does the Potency read?
The Potency was inactive: > 76.9 µM.

Which Potency does the source give for CCCCN(C(=O)c1ccco1)c1nnc(-c2cc(OC)c(OC)c(OC)c2)s1 here?
Its Potency is inactive: > 76.9 µM.

O=C(O)CCCc1nc(-c2ccccc2)no1 was tested. Which Potency did it give?
The Potency was inactive: > 76.9 µM.

With CCS(=O)(=O)N1CCC(C(=O)N2CCOCC2)CC1 as the molecule, how does the Potency read?
The Potency was inactive: > 76.9 µM.

Which Potency does the source give for Cn1c(CCNC(=O)c2ccccc2)nc2ccccc21 here?
The Potency was inactive: > 76.9 µM.

CC(=O)c1cc2c(cc1NC(=O)CN1CCN(c3cccc(C(F)(F)F)c3)CC1)OCO2 was tested. Which Potency did it give?
Its Potency is inactive: > 76.9 µM.

For Cc1nc2[nH]c(=O)c3c(n2n1)NC1=C(C(=O)CC(C)(C)C1)C3c1ccc(F)cc1 (stereo not given), which Potency is on record?
The Potency was inactive: > 76.9 µM.

For O=C(OCC#CCSc1nnc(-c2ccccc2)o1)c1ccco1, which Potency is on record?
The Potency was inactive: > 76.9 µM.

O=C(Nc1ccc2c(c1)ncn2-c1ccccc1)c1ccco1 was tested. Which Potency did it give?
Its Potency is inactive: > 76.9 µM.

How did the Potency turn out when COCCCn1c(SCc2cc(=O)[nH]c3ccccc23)nnc1-c1ccco1 was run?
The Potency was inactive: > 76.9 µM.

For CNC(=O)c1cc2cc(OC)ccc2oc1=N, which Potency is on record?
Its Potency is inactive: > 76.9 µM.

Which Potency does the source give for COc1ccc(S(=O)(=O)N2CCN(C(=O)c3cccs3)CC2)cc1OC here?
The Potency was inactive: > 76.9 µM.

For CC(=O)c1ccc(NC(=O)CSc2nnc(NC(=O)CN3CCOCC3)s2)cc1, which Potency is on record?
Its Potency is inactive: > 76.9 µM.

With CSc1nccc(Nc2ccccc2)c1C#N as the molecule, how does the Potency read?
Its Potency is inactive: > 76.9 µM.

For COc1ccc(-c2cc3nc(-c4ccccc4)cc(N4CCC5(CC4)OCCO5)n3n2)cc1, which Potency is on record?
Its Potency is inactive: > 76.9 µM.

Cc1ccc2[nH]c3c(c2c1)CCC3=O was tested. Which Potency did it give?
The Potency was inactive: > 76.9 µM.

How did the Potency turn out when CCOc1ccc(OC(=O)c2cccnc2)cc1 was run?
The Potency was inactive: > 76.9 µM.

How did the Potency turn out when CS(=O)CCC(NS(=O)(=O)c1ccccc1)C(=O)O (stereo not given) was run?
The Potency was inactive: > 76.9 µM.

For CCCCCn1c(SCc2ccncc2)nc2cc(C(=O)NCc3ccco3)ccc2c1=O, which Potency is on record?
The Potency was inactive: > 76.9 µM.

Which Potency does the source give for CC(C)c1nc2cc3ccccc3cc2[nH]1 here?
The Potency was inactive: > 76.9 µM.

With CC(=O)NC(Cc1c[nH]c2ccccc12)C(=O)Nc1ccc2c(c1)OCO2 (stereo not given) as the molecule, how does the Potency read?
Its Potency is inactive: > 76.9 µM.

How did the Potency turn out when CCOC(=O)c1c(N)n[nH]c1-c1ccc(OC)cc1 was run?
The Potency was inactive: > 76.9 µM.

O=C(CNS(=O)(=O)c1ccc(Br)s1)N1CCC(N2CCCCC2)CC1 was tested. Which Potency did it give?
Its Potency is inactive: > 76.9 µM.

Which Potency does the source give for CCC(C)(NC(=O)c1ccccn1)C(=O)NC1CCCCC1 (stereo not given) here?
The Potency was inactive: > 76.9 µM.

How did the Potency turn out when O=C(Cc1cccs1)Nc1nc2ccccc2s1 was run?
Its Potency is inactive: > 76.9 µM.

How did the Potency turn out when COc1ccc(CCN(C)C(=O)N2CCOCC2)cc1OC was run?
The Potency was inactive: > 76.9 µM.

For COc1ccc(OC)c(NC(=O)C2=C(C)Nc3ncnn3C2c2cccs2)c1 (stereo not given), which Potency is on record?
Its Potency is inactive: > 76.9 µM.

How did the Potency turn out when c1ccc(CCc2nc(-c3ccccn3)no2)cc1 was run?
Its Potency is inactive: > 76.9 µM.

For CC(=O)N(C(C)=O)c1ccc2nc(C)[nH]c(=O)c2c1, which Potency is on record?
The Potency was inactive: > 76.9 µM.

With COc1ccccc1N1CCN(C(c2ccc(C)cc2)c2nnnn2C(C)C)CC1 (stereo not given) as the molecule, how does the Potency read?
Its Potency is inactive: > 76.9 µM.

Which Potency does the source give for CCOc1cc(C(=O)Nc2cnccn2)cc(OCC)c1OCC here?
Its Potency is inactive: > 76.9 µM.
